Assay results from PubChem BioAssay AID1963576 (National Center for Advancing Translational Sciences (NCATS), 2024).
The whole screen tested about 46,000 compounds, of which about 60 (0.1%) were called active. Not shown: some 3% with an inconclusive outcome. Calls come from the whole dose curve; as a rule, active = well fitted inhibition curve with a large enough effect; inconclusive = small, poorly fitted or top-dose-only effect; inactive = no such curve, though single readings can be large or run the other way. Some of the results follow.

assay: Primary qHTS assay for Inhibitors of ovarian cancer metastasis using an organotypic tumor microenvironment (TME) model.; note: nearly all actives have a fitted effect of over 65% in size;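 for activity change, negative = inhibition: plate controls were DMSO wells for no effect and tomatine positive control wells for full effect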; conditions: SKOV3ip1-GFP adhesion/invasion on 3D omental model, fluorescence; series mostly up to 45.8 µM; activity change, negative = inhibition: at the top concentration
How it was run: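 Adhesion/invasion was scored as fixed GFP-labeled SKOV3ip1 cell counts (488/509 nm), normalized to DMSO and tomatine controls. Cancer cells in serum-free medium, with four compound doses (0.36-46 umol/L), sat 2 hr at RT then 16 hr at 37 C on a 48 hr fibroblast/mesothelial/ECM culture.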

Activity change, negative = inhibition, inactive:
Cc1ccc(N2CC(NC(=O)C(=O)c3c[nH]c4ccccc34)CC2=O)cc1 (stereo not given) -21.3%
COc1ccccc1OCC(=O)NCC1(N(C)C)CCCCC1 0.707%
CC(C)CCNC(=O)c1ccc2c(c1)N(Cc1ccccc1F)C(=O)c1ccccc1S2=O (stereo not given) 2.12%
CCN1CCCC1CNC(=O)c1cc(S(N)(=O)=O)ccc1OC (stereo not given) -12.3%
O=C(Cn1ncc2c(Cl)cccc21)NCc1cccc(Br)c1 -6.89%
N#C/C(=C\c1c(Oc2ccc(Br)cc2)nc2ccccn2c1=O)c1nc2ccccc2s1 7.41%
COC(=O)c1cccc(NC(=O)Nc2cc(C(=O)NCc3cccc(F)c3)ccc2N2CCCC2)c1 18.1%
Cc1ccc(Cc2nc3ccccc3nc2SCC(=O)N2CCCCC2C)cc1 (stereo not given) 29.7%
O=C(CSc1nc(=O)n(Cc2cccnc2)c2c1CCC2)Nc1ccc(F)cc1F 2.55%
COc1ccc(Cl)cc1NC(=O)c1cc(C)nn1-c1ccccc1 15.8%
CCOC(=O)c1c(NC(=O)c2cc(=O)c3ccc(C)cc3o2)sc(C)c1C 7.73%
COc1cccc(N2CCN(S(=O)(=O)c3ccc4c(c3)CCCN4C(C)=O)CC2)c1 0.184%
Cc1nn(C(C)C(=O)NC2CCC(C)CC2)c(=O)c2cc3sccc3n12 (stereo not given) 8.51%
CN(C)c1ccc(CNC(=O)CCCn2ccc3cc(S(=O)(=O)N4CCCC4)ccc32)cc1 -6.1%
COc1ccccc1N1CCN(C(=O)c2cn(C)c3ccc(S(=O)(=O)N4CCOCC4)cc3c2=O)CC1 -3.21%
CCCCN1CCc2nc(N3CCN(C)CC3)ncc2C1 1.67%
CC(=O)N1CCc2cc(Br)cc(S(=O)(=O)N3CCN(c4cccc(C)c4)C(C)C3)c21 (stereo not given) -1.09%
O=S(=O)(c1ccc(Cl)cc1)c1nnn2c1nc(N1CCCCC1)c1sccc12 -4.85%
COc1ccc(OC)c(S(=O)(=O)N2CC=C(c3c(C)n(CC(=O)N4CCCC4)c4ccccc34)CC2)c1 1.97%
Cc1cccc(NC(=O)N2CCC(CN3CCOCC3)CC2)c1C -10.5%
CC(CNC(=O)CCS(=O)(=O)c1ccc2c(c1)oc(=O)n2C)c1ccccc1 (stereo not given) -7.28%
Cc1ccc2c(c1)-c1c(c(C(=O)N3CCN(c4cc(Cl)ccc4C)CC3)nn1C)CS2 4.44%
Cc1cn(C)c(CC(=O)N2CCN(c3ccccc3F)CC2)c1C(=O)O 13.8%
Cc1ccccc1NC(=O)CN(c1ccc(Cl)cc1Cl)S(=O)(=O)c1ccccc1 2.82%
CCCCN(C)CCNC(=O)c1ccc2c(c1)NC(=O)CN2 1.9%
Cc1cccc(C(=O)Nc2nc(-c3nnn(-c4cc(F)ccc4F)c3C)ns2)c1 -13.2%
Cc1cccn2c(=O)c3cc(C(=O)N(Cc4ccccc4)C(C)C)sc3nc12 -7.35%
O=S(=O)(NCc1ccccc1Cl)c1ccc(N2CCCCS2(=O)=O)cc1 35%
Cc1ccc(NC(=O)C(=O)NCC(c2cccnc2)N2CCN(Cc3ccccc3)CC2)cc1 (stereo not given) 0.479%
CCc1ccccc1NC(=O)CSc1nc2c(oc3ccccc32)c(=O)n1-c1ccccc1F -3.09%
COc1ccc(-c2ccc3cc(C(=O)O)ccc3c2)cc1C12CC3CC(CC(C3)C1)C2 2.33%
Cc1cc(Cl)ccc1NC(=O)C1CCN(c2nnc(-n3c(C)ccc3C)s2)CC1 -0.689%
Cc1cccc(Cn2c(C)c(CNC3CCCCC3)c(C(=O)O)c2C)c1 16.7%
Cc1cc(C)c(NC(=O)CSc2nc(-c3ccc(F)cc3)nc3c2Cc2c(CO)cnc(C)c2O3)c(C)c1 -0.0887%
O=C(NCCC1=CCCCC1)c1ccc2c(c1)N(Cc1cccc(Cl)c1)C(=O)c1ccccc1S2(=O)=O -7.49%
CC(=O)c1cc2c(cc1NC(=O)c1cnn(-c3ccc(C)cc3)c1-n1cccc1)OCO2 -11.3%
O=C(Cn1ncc2c3ccccc3n(Cc3ccccc3F)c2c1=O)N1CCCCC1 0.191%
CCOc1ccc(CCNC(=O)c2[nH]c3cc(OC)ccc3c2Sc2ccccc2)cc1OCC -2.92%
CC(C)CN(CCCNC(=O)CN1N=C(c2ccccc2)CCC1=O)CC(C)C 15.3%
COc1ccccc1CNC(=O)c1ccc(N2CCCC2)c(NC(=O)NCc2ccc(F)cc2)c1 -0.445%
CCCCSCCCNC(=O)C1CCN(Cc2nc(-c3cccc(Br)c3)oc2C)CC1 0.627%
Cc1nn(-c2ccc(N3CCCC3)nn2)c(C)c1CCC(=O)NCc1ccc(OC(C)C)cc1 -4.99%
CCOc1ccc(C(=O)N2CCN(CCc3ccccn3)CC2)cc1 0.173%
CCOc1ccc(S(=O)(=O)c2cn(Cc3ccc(OC)cc3)c3ccc(F)cc3c2=O)cc1 0.555%
CCOc1ccc(NC(=O)Cn2c(=O)cc(C)c3c(C)nn(-c4cccc(Cl)c4C)c32)cc1 12.1%
Cc1ccc(N2CCN(S(=O)(=O)c3nnc(NC(=O)c4ccc(C(C)C)cc4)s3)CC2)cc1 5.87%
Cc1ccc(-c2nc(S(=O)(=O)c3ccc(C)cc3)c(N3CCCCCC3)o2)cc1 -21.8%
COc1ccc(CNC(=O)C2CCC(CNS(=O)(=O)c3cccs3)CC2)cc1 (stereo not given) -0.471%
CCOC(=O)c1ccccc1NC(=O)CSc1cn(CC(=O)N2CCOCC2)c2ccccc12 -14.4%
CCOc1ccc(Nc2nc(C)c(NC(=O)c3cccc(OC)c3)c(Nc3ccc(OCC)cc3)n2)cc1 -17.3%
Cc1ccccc1CSc1nc2cccnc2n1Cc1ccc(C(=O)NC2CC2)cc1 -2.72%
COC(=O)C1=C(c2ccccc2)c2ccccc2S(=O)(=O)N1CC(=O)Nc1ccc(OC)cc1OC -3.38%
Cc1cc(=O)[nH]c2nnc(SCc3ccc(Cl)cc3)n12 -3.37%
CCOc1ccc(NC(=O)CN2C(C(=O)OC)=C(c3ccccc3)c3cc(Cl)ccc3S2(=O)=O)cc1 -2.15%
COc1ccccc1-c1cc(NC(=O)COc2ccc(C)c(C)c2)n(-c2ccccc2)n1 -2.44%
COc1ccccc1NC(=O)C1CCN(S(=O)(=O)c2cn(C)cn2)CC1 -6.88%
Cc1cccc(N(C)S(=O)(=O)c2c(C(=O)N3CCCCCC3)c(C)n(C)c2C)c1 11.5%
Cc1cc2nc(-c3cccc(NC(=O)COc4ccc(Cl)c(C)c4)c3)oc2cc1C -1.19%
COc1ccc(NC(=O)c2c(NCc3cccc(F)c3)sc3c2CCCC3)c(OC)c1 0.0408%
Cc1ccc(CNC(=O)CN2CCN(Cc3ccc(F)cc3)C2=O)cc1 -4.87%
Cc1ccc(Cl)cc1-n1ncc2c(N3CCC(C)CC3)ncnc21 11.2%
Cc1cccc2c1-c1sc(C(=O)N3CCN(c4cccc(Cl)c4)CC3)cc1CO2 -25.8%
CC(C)OCc1cc(CN2CCN(c3ccccc3)CC2)c(O)c2ncccc12 6.33%
COc1ccc(-c2cc(C(F)(F)F)nc(SCC(=O)NCc3ccc(Cl)cc3)n2)cc1 0.358%
CCOc1ccc(CCNC(=O)c2cnc3sc(N4CCCCCC4)nn3c2=O)cc1 10.8%
Cc1ccc(C)c(C(=O)COC(=O)CCCC(=O)Nc2cc(C(F)(F)F)ccc2Cl)c1 9.51%
Cc1cccc(CC(=O)NCCc2csc(-c3ccc(C(F)(F)F)cc3)n2)c1 2.24%
COc1ccccc1CNC(=O)C(CC(C)C)N1Cc2ccccc2C1=O (stereo not given) 5.86%
O=C(CSc1nccn1Cc1ccc(Cl)cc1)NCc1ccccc1 -7.34%
CCOc1ccccc1NC(=O)CSC1=Nc2ccccc2C2=NC(CC(=O)NC3CCCCC3)C(=O)N12 (stereo not given) 8.73%
CCC(=O)Nc1nnc(S(=O)(=O)N(C)Cc2ccc(Cl)cc2)s1 9%
O=S1(=O)c2ccccc2N(Cc2ccc(Cl)cc2F)c2ccccc21 -1.18%
COc1ccc(OC)c(NC(=O)CSC2=Nc3ccccc3C3=NC(CCC(=O)NCc4ccco4)C(=O)N23)c1 (stereo not given) 3.96%

outcome, inactive:
Cc1ccc(Cn2c(CCCNC(=O)C3CCCCC3)nc3ccccc32)cc1
O=C(NCCc1csc(-c2cccnc2)n1)c1ccc(F)c(F)c1
COc1ccc(N2CCN(C(=O)CS(=O)(=O)c3cccc4nsnc34)CC2)cc1
COc1ccc(-c2nc3sc(CCNC(=O)c4ccccc4C)c(C)n3n2)cc1
Cc1c(C(=O)NCCc2ccc(S(N)(=O)=O)cc2)sc2nc3n(c(=O)c12)CCCC3
CC(=O)Nc1ccc(-c2nnc(SCC(=O)c3ccc([N+](=O)[O-])cc3)o2)cc1
Cc1ccc2ccc3cc(C(=O)N4CCN(c5ccccc5)CC4)nc3c2[nH]1
CC1CCN(S(=O)(=O)c2ccc3c(c2)N(CC(=O)O)C(=O)CO3)CC1
CCOC(=O)c1ccccc1NC(=O)N1CCOc2ccc(Cl)cc21
COc1ccc(-c2cc(C(F)(F)F)n3nc(C(=O)NCC45CC6CC(CC(C6)C4)C5)cc3n2)cc1OC
COc1ccc(S(=O)(=O)N(CC(=O)Nc2cccc(C)c2)c2ccc(C)cc2)cc1OC
COc1ccc(N2CCN(c3ccc(-c4nc(-c5cccc(C)c5)no4)cc3[N+](=O)[O-])CC2)cc1
CCOC(=O)C1=C(CN(CC)Cc2ccccc2)NC(=O)NC1c1ccc(OC(C)C)cc1 (stereo not given)
CCOC(=O)CC(NC(=O)CCc1c(C)nc2ncnn2c1C)c1ccc(OC(C)C)cc1 (stereo not given)
CC(C)c1ccc(NC(=O)CCNS(=O)(=O)c2ccc3c(c2)CCCC(=O)N3)cc1
Cn1c(=O)[nH]c(=O)c2c1nc1n2CCN1c1ccccc1
O=C(NCc1ccccc1)C1CCN(S(=O)(=O)c2ccc3[nH]c(=O)ccc3c2)CC1
COc1ccc(OC)c(NC(=O)CN2CCCN(Cc3cc(C)ccc3C)S2(=O)=O)c1
CCOC(=O)c1ccc(N2C(=O)c3n[nH]c(-c4ccco4)c3C2c2ccc(F)cc2)cc1 (stereo not given)
CC1=C(C(=O)Nc2ccc(F)cc2F)C2(CCCCCC2)OC1=O
CCOC(=O)c1ccc(NC(=O)CN(c2ccc(C)cc2)S(=O)(=O)c2ccc(OC)cc2)cc1
CN(C)S(=O)(=O)c1ccc2c(c1)c(=O)c(C(=O)N1CCN(c3cccc(Cl)c3)CC1)cn2C
